In PubChem BioAssay AID488969 (Vanderbilt High Throughput Screening Facility, 2010):
Whole data set: some 110,000 compounds, median “z-score” near -0.1, cut for the highest 2% near 2. The list shows a part of the results. The source made the active and inactive calls.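 Rule for the calls: active = z-score in the third read window above 3 or below -3; inactive = the rest.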

Target: Metabotropic glutamate receptor 8 (Rattus norvegicus) (UniProt P70579)
Test: mGluR8 Gi/Go-coupled signaling modulation – cell-based, rat, thallium flux, HTS, primary screen (AID 488969)
Details: HEK293 rat mGluR8, GIRK (G protein-gated inwardly rectifying potassium channel) thallium flux, FluoZin2; at 10 µM; stronger effect = higher value; submaximal glutamate (EC20) added with thallium

Sequence of UniProt P70579 (P70579 whole entry, looked up): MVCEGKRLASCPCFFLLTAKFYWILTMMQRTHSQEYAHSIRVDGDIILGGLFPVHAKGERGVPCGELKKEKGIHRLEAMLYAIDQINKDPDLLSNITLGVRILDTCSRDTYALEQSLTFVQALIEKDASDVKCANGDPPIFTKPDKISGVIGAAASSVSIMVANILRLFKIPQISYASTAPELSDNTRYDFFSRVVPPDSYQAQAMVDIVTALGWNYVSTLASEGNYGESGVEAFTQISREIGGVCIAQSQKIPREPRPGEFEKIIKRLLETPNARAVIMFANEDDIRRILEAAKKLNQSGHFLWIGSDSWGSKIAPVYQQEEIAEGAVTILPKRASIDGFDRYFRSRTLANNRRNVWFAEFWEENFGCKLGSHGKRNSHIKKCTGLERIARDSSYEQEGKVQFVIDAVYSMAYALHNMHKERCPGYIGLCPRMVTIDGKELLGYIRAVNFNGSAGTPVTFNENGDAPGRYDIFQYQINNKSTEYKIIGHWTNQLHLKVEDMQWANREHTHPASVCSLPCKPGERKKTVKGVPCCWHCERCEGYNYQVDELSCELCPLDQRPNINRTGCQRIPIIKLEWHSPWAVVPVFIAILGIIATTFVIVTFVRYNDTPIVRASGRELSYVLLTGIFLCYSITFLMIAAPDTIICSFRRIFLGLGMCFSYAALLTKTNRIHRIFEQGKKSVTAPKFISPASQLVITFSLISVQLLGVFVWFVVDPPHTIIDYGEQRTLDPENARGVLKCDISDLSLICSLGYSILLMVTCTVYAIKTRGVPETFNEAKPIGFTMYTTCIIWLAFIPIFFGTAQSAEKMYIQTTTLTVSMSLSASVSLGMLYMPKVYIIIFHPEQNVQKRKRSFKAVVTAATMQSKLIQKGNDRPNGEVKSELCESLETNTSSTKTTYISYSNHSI

Compound	z-score
O=C1CC(Nc2ccc(N3CCOCC3)cc2)C(=O)N1CCc1ccccc1 (stereo unspecified)	0.0429
CCCSc1nc2sc3c(c2c(=O)[nH]1)CCN(Cc1ccccc1)C3	active: 3.04
COc1ccccc1C1C=C(c2ccccc2)Nc2nnnn21 (stereo unspecified)	-0.0457
O=S(=O)(Nc1cccnc1)c1ccc(C2CCCCC2)cc1	-0.42
Cc1ccc(C(=O)Nc2nnc(C3CCCCC3)s2)o1	-0.163
O=C(Cc1ccccc1)N(c1ccc(F)cc1)C1C=CS(=O)(=O)C1 (stereo unspecified)	-0.0671
COc1ccc(CCNC(=O)CSc2nc(C)cs2)cc1	0.122
COc1ccc(C2CCCN2C(=O)Nc2ccc(C)c(C)c2)cc1OC (stereo unspecified)	-1.77
CC(=O)Nc1ccc(S(=O)(=O)Oc2ccc(/C=N/NC(=O)c3ccc(Cl)cc3)cc2)cc1	-0.0274
COc1ccc(CC(=O)N2CCCc3ccccc32)cc1OC	0.0732
O=S(=O)(NCCOCC(F)(F)C(F)F)c1ccc2oc3ccccc3c2c1	-0.151
Cc1cc2nc(-c3ccc(SCc4ccc(C#N)cc4)nc3)[nH]c2cc1C	-0.494
NC(=O)c1oc2ccc(Cl)cc2c1NC(=O)CN1CCOCC1	-0.0772
Cc1c(N=Cc2c(O)n(C)c(=O)c3ccccc23)c(=O)n(-c2ccccc2)n1C	-0.221
CCOC(=O)CC(NC(=O)c1ccc(C)cc1)c1ccc(C)cc1 (stereo unspecified)	-0.334
CCS(=O)(=O)N1CCCC(C(=O)NC2CCCC2)C1 (stereo unspecified)	0.574
Cc1cc(C)c2oc(-c3cccc(NC(=O)c4ccc(F)cc4)c3)nc2c1	-0.0725
CCOC(=O)C1=C(c2ccccc2)N=c2s/c(=C\c3cc(OC)c(OC)c(OC)c3)c(=O)n2C1c1cccs1 (stereo unspecified)	-0.151
CCOC(=O)c1sc(NC(=O)c2ccc(Br)o2)cc1C	0.388
Cc1cc2cc(CN(Cc3cccs3)S(=O)(=O)c3ccc4c(c3)OCCO4)c(=O)[nH]c2cc1C	-0.0967
CC(C)OC(=O)/C(=C\c1ccc2c(c1)c1ccccc1n2C)NC(=O)c1ccccc1	-0.366
COc1ccccc1N(C)S(=O)(=O)c1ccc(C(=O)NCC(C)C)cc1	0.45
CC1CN(C(=O)c2scc3c2OCCO3)CC(C)O1 (stereo unspecified)	0.297
Cc1c(C(=O)Oc2ccc(F)cc2)sc2ncn(Cc3cccc(F)c3)c(=O)c12	-0.113

Compound	z-score
[N-]=[N+]=CC(=O)CNC(=O)[C@@H](Cc1ccccc1)N1C(=O)c2ccccc2C1=O	-0.0201
Cc1ccc(C(=O)CCNc2ccccc2)o1	-0.233
COc1ccc(Nc2ccc(Nc3ccc(OC)cc3)nn2)cc1	0.0599
COc1ccc(N2C(=O)CC(Sc3nc(C)cc(C)c3C#N)C2=O)cc1 (stereo unspecified)	-0.705
Cc1nc(Cl)sc1C(=O)Nc1cccc(Cl)c1C	-0.328
CSc1nc(N(C)NC(=O)c2ccccc2)c2ccccc2n1	-0.265
O=C(O)COc1ccc(-c2nnn(CC(=O)O)n2)cc1	0.352
CC(=O)NC1(c2ccc(F)cc2)CCN(C(=O)Nc2ccc(F)cc2F)CC1	0.106
COc1ccc(CCNC(=O)C2CC(c3cccc([N+](=O)[O-])c3)=NO2)cc1 (stereo unspecified)	0.0116
COc1ccccc1NC(=O)Cc1noc(CN(C)Cc2cccs2)n1	-0.0638
COc1ccc(-c2noc(-c3ccc4c(c3)OCO4)n2)cc1	-0.149
O=C(O)COc1cccc2ccccc12	-0.112
CCn1c(SCC(=O)N2CCc3ccccc3C2)nc2sc(C)c(C)c2c1=O	-0.411
Cn1c2c(c(=O)n(C)c1=O)C1(C(=O)Nc3ccccc31)C(C#N)=C(N)O2 (stereo unspecified)	-0.176
CS(=O)(=O)N1CCc2cc(S(=O)(=O)Nc3ccc4oc5c(c4c3)CCCC5)ccc21	-0.171
Cc1ccnc(NS(=O)(=O)c2ccc(CC(C)C)cc2)c1	-0.146
Cc1cc2ncn(S(=O)(=O)N(C)C)c2cc1C	-0.271
CCc1nc2cc(Cl)c(Cl)cc2[nH]1	2
O=C(CSc1nc2c(c(=O)n1-c1ccc(F)cc1)SCC2)NCc1ccco1	-1.12
CC(C)c1ccc(-c2nc(N3CCCCC3)[nH]c(=O)c2C#N)cc1	-0.198
O=C(Nc1ccc(Cl)cc1)c1ccc2c(c1)OCO2	-0.277
CCOC(=O)c1ccc(NC(=O)Cn2nnc(-c3ccccc3)n2)cc1	-0.684
COc1ccc(C(=O)Nc2ccc(NC(=O)c3cccs3)cc2)cc1Cl	-0.162
COCCn1c(SCc2nnc(-c3ccc(OC)c(OC)c3)o2)nc2sc3c(c2c1=O)CCC3	-0.833

Compound	z-score
COCCNC(=O)CSc1nc2cc(OC)c(OC)cc2c(=O)n1CCC1=CCCCC1	-0.619
Cc1ccc(C2CC(=O)C=C(O)C2)cc1 (stereo unspecified)	-0.356
CCN(CC)S(=O)(=O)c1ccc2c(c1)nc(SCC(=O)NC1CC1)n2-c1ccccc1OC	-0.5
CC(C)c1ccc(S(=O)(=O)c2nnn3c2nc(N2CCCCC2)c2ccccc23)cc1	-0.645
CC(NC(=O)c1cc(-c2cccs2)on1)c1ccccc1 (stereo unspecified)	-1.04
O=c1cc(N2CCCC2)[nH]c(=O)n1-c1ccc(Cl)cc1	-0.566
CC(C)NC(=O)COC(=O)c1cc(=O)[nH]c2ccccc12	-0.16
Cc1cc(=O)oc2cc(OC(C)C(=O)N3CCOCC3)ccc12 (stereo unspecified)	1.51
CC(C)(C)C(=O)Nc1ccccc1C(=O)Nc1cc(Cl)ccc1Cl	0.0855
Cc1nnc(SCCn2c(Br)nc3c2c(=O)[nH]c(=O)n3C)s1	-0.581
CCCCN(CC)c1nc(-c2ccncc2)nc2ccccc12	-0.000703
Cc1ccc(C(NC(N)=O)c2ccccc2C)cc1 (stereo unspecified)	-0.491
COc1ccnc(Oc2ccc(F)cc2)c1C(=O)N/C=N/OCc1c(Cl)cccc1Cl	-0.269
COc1cc(CNc2ccccc2SC)ccc1O	1.58
Cc1cc(C)n2nc(SCc3nnc(SCc4ccccc4)s3)nc2n1	-0.155
CCOC(=O)C(C)Sc1nnc(NC(=O)c2cccc([N+](=O)[O-])c2C)s1 (stereo unspecified)	0.84
O=C(NC(=S)Nc1ncccn1)c1ccccc1Cl	-0.109
C=COCCNC(=O)C(=O)NC(C)C	-0.168
COc1cc(OC)c(C(=O)COc2ncnc3ccccc23)c(OC)c1	0.381
CC(C)(C)NC(=O)CSc1ccc(C(C)(C)C)cc1	-0.513
O=C1OC(c2ccccc2)/C(=C(/O)c2ccc(Cl)cc2)C1=O (stereo unspecified)	-2.54
COc1ccc(C(=O)NC(=S)NNC(=O)c2cnccn2)cc1	0.0423
O=C(Nc1ccc(Cl)c(S(=O)(=O)N2CCOCC2)c1)c1ccccc1-c1ccc(C(F)(F)F)cc1	0.095
